Data taken from the supplement of paper PMC11741623.
This is one part of the list. Interaction screen of human proteins with wild-type SARS-CoV-2 proteins by split-DHFR complementation in yeast, 1 µg/mL methotrexate. Value = fitness of the pair (three or more lineages) minus that of the viral protein without a human partner, on a scale set by negative (0) and fused positive (1) controls, mean of up to three cultures; higher = more likely to interact. Active = false discovery rate below 0.05 (one-sided t-test) in at least one culture. Nearly all pairs are not hits, and differences among them are mostly noise (correlation between cultures about 0.3); most hits were seen in one culture only. Human sequences are the Swiss-Prot entries looked up by gene name; the clone may be another isoform. NSP2 values were corrected by the authors for a growth advantage. Listed are human proteins with a hit and a random twelfth of the others.

B1: C7orf53, Q8N8F7 (protein)
chain: MTHSSQDTGSCGIQEDGKLYVVDSINDLNKLNLCPAGSQHLFPLEDKIPVLGTNSGNGSRSLFFVGLLIVLIVSLALVFFVIFLIVQTGNKMDDVSRRLTAEGKDIDDLKRINNMIVKRLNQLNQLDSEQN
B2: CNN2, Q99439 (protein)
chain: MSSTQFNKGPSYGLSAEVKNRLLSKYDPQKEAELRTWIEGLTGLSIGPDFQKGLKDGTILCTLMNKLQPGSVPKINRSMQNWHQLENLSNFIKAMVSYGMNPVDLFEANDLFESGNMTQVQVSLLALAGKAKTKGLQSGVDIGVKYSEKQERNFDDATMKAGQCVIGLQMGTNKCASQSGMTAYGTRRHLYDPKNHILPPMDHSTISLQMGTNKCASQVGMTAPGTRRHIYDTKLGTDKCDNSSMSLQMGYTQGANQSGQVFGLGRQIYDPKYCPQGTVADGAPSGTGDCPDPGEVPEYPPYYQEEAGY
B3: FOXRED1, Q96CU9 (protein)
chain: MIRRVLPHGMGRGLLTRRPGTRRGGFSLDWDGKVSEIKKKIKSILPGRSCDLLQDTSHLPPEHSDVVIVGGGVLGLSVAYWLKKLESRRGAIRVLVVERDHTYSQASTGLSVGGICQQFSLPENIQLSLFSASFLRNINEYLAVVDAPPLDLRFNPSGYLLLASEKDAAAMESNVKVQRQEGAKVSLMSPDQLRNKFPWINTEGVALASYGMEDEGWFDPWCLLQGLRRKVQSLGVLFCQGEVTRFVSSSQRMLTTDDKAVVLKRIHEVHVKMDRSLEYQPVECAIVINAAGAWSAQIAALAGVGEGPPGTLQGTKLPVEPRKRYVYVWHCPQGPGLETPLVADTSGAYFRREGLGSNYLGGRSPTEQEEPDPANLEVDHDFFQDKVWPHLALRVPAFETLKVQSAWAGYYDYNTFDQNGVVGPHPLVVNMYFATGFSGHGLQQAPGIGRAVAEMVLKGRFQTIDLSPFLFTRFYLGEKIQENNII
B4: GIP, P09681 (protein)
chain: MVATKTFALLLLSLFLAVGLGEKKEGHFSALPSLPVGSHAKVSSPQPRGPRYAEGTFISDYSIAMDKIHQQDFVNWLLAQKGKKNDWKHNITQREARALELASQANRKEEEAVEPQSSPAKNPSDEDLLRDLLIQELLACLLDQTNLCRLRSR
B5: GMPR, P36959 (protein)
chain: MPRIDADLKLDFKDVLLRPKRSSLKSRAEVDLERTFTFRNSKQTYSGIPIIVANMDTVGTFEMAAVMSQHSMFTAIHKHYSLDDWKLFATNHPECLQNVAVSSGSGQNDLEKMTSILEAVPQVKFICLDVANGYSEHFVEFVKLVRAKFPEHTIMAGNVVTGEMVEELILSGADIIKVGVGPGSVCTTRTKTGVGYPQLSAVIECADSAHGLKGHIISDGGCTCPGDVAKAFGAGADFVMLGGMFSGHTECAGEVFERNGRKLKLFYGMSSDTAMNKHAGGVAEYRASEGKTVEVPYKGDVENTILDILGGLRSTCTYVGAAKLKELSRRATFIRVTQQHNTVFS

Molecular target: SARS-CoV-2 E
Assay: yeast fitness gain over the viral ORF with no human partner (scaled fitness); higher = more likely to interact
Experimental: (§1)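 Split mouse DHFR complementation in pooled diploid yeast: human ORFeome clones carry one fragment and viral ORFs the other; barcoded lineages compete in 1 µg/mL methotrexate and fitness is read by barcode sequencing in up to three cultures.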

Binder | yeast fitness gain
B1 | inactive: 0.048
B2 | inactive: 0.0768
B3 | inactive: 0.0054
B4 | inactive: 0.119
B5 | inactive: 0.031

Molecular target: SARS-CoV-2 M
Assay: as above
Experimental: as §1

Binder | yeast fitness gain
B1 | inactive: 0.037
B2 | inactive: 0.031
B3 | inactive: 0.04
B5 | inactive: 0.0224

Molecular target: SARS-CoV-2 N
Assay: as above
Experimental: as §1

Binder | yeast fitness gain
B1 | inactive: 0.0548
B2 | inactive: 0.0777
B3 | inactive: 0.00191
B5 | inactive: 0.0691

Molecular target: SARS-CoV-2 NSP1
Assay: as above
Experimental: as §1

Binder | yeast fitness gain
B1 | inactive: 0.0642
B2 | inactive: 0.0647
B3 | inactive: 0.0368
B4 | inactive: 0.0327
B5 | inactive: 0.00682

Molecular target: SARS-CoV-2 NSP10
Assay: as above
Experimental: as §1

Binder | yeast fitness gain
B1 | inactive: 0.0343
B2 | inactive: 0.00247
B3 | inactive: 0.018
B5 | inactive: 0.0311

Molecular target: SARS-CoV-2 NSP12
Assay: as above
Experimental: as §1

Binder | yeast fitness gain
B1 | inactive: 0.0552
B2 | inactive: 0.0538
B3 | inactive: 0.0293
B5 | inactive: 0.0387

Molecular target: SARS-CoV-2 NSP13
Assay: as above
Experimental: as §1

Binder | yeast fitness gain
B1 | inactive: 0.0209
B2 | inactive: -0.011
B3 | inactive: 0.0346
B5 | inactive: 0.0197

Molecular target: SARS-CoV-2 NSP14
Assay: as above
Experimental: as §1

Binder | yeast fitness gain
B1 | inactive: 0.00413
B2 | inactive: 0.023
B3 | inactive: 0.0989
B5 | inactive: -0.106

Molecular target: SARS-CoV-2 NSP15
Assay: as above
Experimental: as §1

Binder | yeast fitness gain
B1 | inactive: 0.0192
B2 | inactive: 0.0225
B3 | inactive: -0.0106
B5 | inactive: 0.0587

Molecular target: SARS-CoV-2 NSP16
Assay: as above
Experimental: as §1

Binder | yeast fitness gain
B1 | inactive: 0.0122
B2 | inactive: 0.0405
B3 | inactive: 0.0362
B5 | inactive: -0.0337

Molecular target: SARS-CoV-2 NSP2
Assay: as above
Experimental: as §1

Binder | yeast fitness gain
B1 | inactive: -0.104
B2 | inactive: -0.046
B3 | inactive: -0.0335
B5 | inactive: -0.0813

Molecular target: SARS-CoV-2 NSP4
Assay: as above
Experimental: as §1

Binder | yeast fitness gain
B1 | inactive: 0.124
B2 | inactive: 0.011
B3 | inactive: 0.00815
B5 | inactive: -0.132

Molecular target: SARS-CoV-2 NSP5
Assay: as above
Experimental: as §1

Binder | yeast fitness gain
B1 | inactive: -0.018
B2 | inactive: 0.031
B3 | inactive: 0.0297
B4 | inactive: -0.0329
B5 | inactive: 0.0099

Molecular target: SARS-CoV-2 NSP6
Assay: as above
Experimental: as §1

Binder | yeast fitness gain
B1 | inactive: 0.0427
B2 | inactive: -0.0202
B3 | inactive: -0.00387
B4 | inactive: 0.036
B5 | inactive: 0.0369

Molecular target: SARS-CoV-2 NSP7
Assay: as above
Experimental: as §1

Binder | yeast fitness gain
B1 | inactive: -0.0999
B2 | inactive: -0.0258
B3 | inactive: 0.0349
B4 | inactive: -0.116
B5 | inactive: 0.0175

Molecular target: SARS-CoV-2 NSP8
Assay: as above
Experimental: as §1

Binder | yeast fitness gain
B1 | inactive: 0.0541
B2 | inactive: 0.0553
B3 | inactive: 0.0124
B4 | inactive: -0.0768
B5 | inactive: 0.0562

Molecular target: SARS-CoV-2 NSP9
Assay: as above
Experimental: as §1

Binder | yeast fitness gain
B1 | inactive: 0.0305
B2 | inactive: 0.066
B3 | inactive: -0.013
B5 | inactive: 0.0177

Molecular target: SARS-CoV-2 ORF10
Assay: as above
Experimental: as §1

Binder | yeast fitness gain
B1 | inactive: 0.0183
B2 | inactive: 0.012
B3 | inactive: 0.0481
B4 | inactive: -0.0164
B5 | inactive: 0.0435

Molecular target: SARS-CoV-2 ORF3A
Assay: as above
Experimental: as §1

Binder | yeast fitness gain
B1 | inactive: 0.0206
B2 | inactive: 0.0966
B3 | inactive: 0.0133
B4 | inactive: 0.0478
B5 | inactive: 0.0139

Molecular target: SARS-CoV-2 ORF3B
Assay: as above
Experimental: as §1

Binder | yeast fitness gain
B1 | inactive: 0.00319
B2 | inactive: 0.0133
B3 | inactive: -0.0304
B5 | inactive: 0.0224

Molecular target: SARS-CoV-2 ORF6
Assay: as above
Experimental: as §1

Binder | yeast fitness gain
B1 | active: 0.0419
B2 | inactive: 0.0337
B3 | inactive: 0.0232
B5 | inactive: 0.00781

Molecular target: SARS-CoV-2 ORF7A
Assay: as above
Experimental: as §1

Binder | yeast fitness gain
B1 | inactive: 0.00734
B2 | inactive: 0.0198
B3 | inactive: -0.0255
B5 | inactive: -0.0098

Molecular target: SARS-CoV-2 ORF7B
Assay: as above
Experimental: as §1

Binder | yeast fitness gain
B1 | inactive: 0.125
B2 | inactive: -0.03
B3 | inactive: -0.0413
B5 | inactive: 0.00756

Molecular target: SARS-CoV-2 ORF8
Assay: as above
Experimental: as §1

Binder | yeast fitness gain
B1 | inactive: 0.0253
B2 | inactive: 0.00965
B3 | inactive: 0.0164
B5 | inactive: -0.00334

Molecular target: SARS-CoV-2 ORF9B
Assay: as above
Experimental: as §1

Binder | yeast fitness gain
B1 | inactive: -0.00213
B2 | inactive: 0.0179
B3 | inactive: 0.0304
B5 | inactive: -0.0157

Molecular target: SARS-CoV-2 ORF9Bwu (the 73-codon ORF)
Assay: as above
Experimental: as §1

Binder | yeast fitness gain
B1 | inactive: 0.0144
B2 | inactive: -0.0729
B3 | inactive: 0.0719
B5 | inactive: 0.0159

Molecular target: SARS-CoV-2 S
Assay: as above
Experimental: as §1

Binder | yeast fitness gain
B1 | inactive: 0.028
B2 | inactive: -0.0254
B3 | inactive: 0.0676
B5 | inactive: 0.00574
